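Interpolation was linear, between the two tested concentrations surrounding the appropriate level; five concentrations were tested over 48 hours in 96-well plates. GI50 is the concentration that inhibits growth by half.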 Activity calls are given as the source filed them. Rule as the data show it: active = GI50 up to about 1.1 µM and inactive = higher.
Each molecule was assayed on NCI-H322M (assay: NCI tumour cell line growth inhibition, 48 h).

Compound | GI50
C=CCOC1CC(n2cnc3c(N)ncnc32)OC1CO (configuration not stated) | inactive: > 100 µM
CCCCN(CCCC)/C(=N\C#N)NCc1ccccc1 | inactive: 24.3 µM
COc1cc(OC)c2c(=O)cc(-c3ccccc3F)[nH]c2c1 | inactive: 65.6 µM
COc1cc(/C=C2\CCC(C)C3C2=NN(C(C)=O)C3c2cc(OC)c(OC)c(OC)c2)cc(OC)c1OC (configuration not stated) | inactive: > 52 µM
Cc1c2c(OCC(O)CN3CCN(c4ccccc4)CC3)nn(C)c(=O)c2c(C)n1-c1ccccc1 (configuration not stated) | inactive: 39.6 µM
COc1ccc(C[C@@H]2OC3(C=CC(=O)CC3Sc3ccccc3)O[C@H]2Cc2ccc(OC)cc2)cc1 (some centres not stated) | inactive: 7.78 µM
O=C(O)c1cc2ccc3ccccc3c2oc1=O | inactive: > 100 µM
CCOC1=C2N=C(C(CC)c3ccccc3F)N=C2C(=O)c2ccccc21 (configuration not stated) | inactive: > 100 µM
COC(=O)C1Cc2c([nH]c3ccccc23)C(C2CCCCC2)N1 (configuration not stated) | inactive: > 100 µM
CC(=O)C(C)(C)CCC(C)(C)C(C)=O | inactive: > 100 µM
NC1=CC(C(=O)c2ccncc2)c2nc3ccccc3nc21 (configuration not stated) | inactive: > 100 µM
Cc1cc(C2CC(O)C(CO)O2)c(F)cc1F (configuration not stated) | inactive: > 100 µM
N=c1oc2cc(O)ccc2cc1C(=O)Nc1cccc2ccccc12 | inactive: 14 µM
CCc1ccc(Cc2ccc(CC)c(NC(=O)C(=O)C3NC(=S)NC3=O)c2CC)c(CC)c1NC(=O)C(=O)C1NC(=S)NC1=O (configuration not stated) | inactive: > 100 µM
CCOC(=O)Nc1nn(C)/c(=N/Cc2ccccc2)s1 | inactive: > 100 µM
CCC(C)CN1C(=O)NC(C)(Cc2ccccc2)C1=O (configuration not stated) | inactive: > 100 µM
CCN1CCC(O)(/C=C/c2ccc(Cl)cc2)C(C(=O)/C=C/c2ccc(Cl)cc2)C1 (configuration not stated) | inactive: 68.2 µM
O=[N+]([O-])c1ccc2c(c1)Cc1cc(/N=C/c3ccc4c(c3)OCO4)ccc1-2 | inactive: > 100 µM
O/N=C/C1c2ccccc2-c2ccccc21 | inactive: 18.1 µM
C[n+]1c2ccc(Cl)cc2nc2cc(-c3ccccc3)ccc21 | inactive: 1.84 µM
CCN(CC)C(=O)Cn1c2c(c3ccccc31)CCCC2 | inactive: > 100 µM
C=C1C(=O)C[C@H]2C(=C)C(=O)O[C@@H]2C2C1CC[C@@]2(C)O (some centres not stated) | inactive: > 100 µM
CCC1(O)C(=O)OCc2c1cc1n(c2=O)Cc2cc3ccc(CO)cc3nc2-1 (configuration not stated) | inactive: 7.18 µM
Cc1ccc(/C=C2\CN(C)CC3C2=NC(=S)NC3c2ccc(C)cc2)cc1 (configuration not stated) | inactive: > 71.6 µM
C=C(C)CNCC(=C)C.Oc1c(Cl)c(Cl)c(Cl)c(Cl)c1Cl | inactive: 21.6 µM

Compound | GI50
CCCCCCCCCCCCCCNCC(OCC)OCC | inactive: 19.5 µM
Cc1cc2nnc(C(N)=O)c(N)c2cc1C | inactive: > 100 µM
Cc1cc2ncc3c(=O)n(NS(=O)(=O)c4ccc(N)cc4)ccc3n2n1 | inactive: > 100 µM
O=C1CCC2(c3ccc(F)cc3)Nc3ccccc3N12 (configuration not stated) | inactive: > 100 µM
Cc1cccc(NC(=O)CC2C(=O)Nc3ccccc3S2(=O)=O)c1C (configuration not stated) | inactive: 90.4 µM
CC(=O)OC(/C=C/c1ccccc1)=C(OC(C)C)/C1=C(\c2ccccc2)SCCCSC1=O | inactive: > 100 µM
C=CCn1c(=S)sc2c(C(=O)OCC)c3c(C)cc(C)cn3c2c1=O | inactive: > 100 µM
O=[N+]([O-])C(/C=C(\Cl)n1nnc2ccccc21)=C(/Cl)n1nnc2ccccc21 | inactive: > 100 µM
N#CC(=S)Nc1ccc(Cl)c(Cl)c1 | inactive: 35.9 µM
CCOc1ccccc1NC(=O)C1=C(C)NC(C)=C(C(=O)Nc2ccccc2OCC)C1c1ccc2c(c1)OCO2 | inactive: 50.2 µM
COc1cc2cc(C(=O)N3CC(CCl)c4ccc([N+](C)(C)Cc5ccc([N+](=O)[O-])cc5)cc43)[nH]c2c(OC)c1OC (configuration not stated) | inactive: 4.88 µM
COc1c2cc([N+](=O)[O-])cc1CN(C(=O)C(F)(F)F)CCOCCN(C(=O)C(F)(F)F)C2 | inactive: > 100 µM
O=C1CCCCC/C1=C\c1ccc(F)cc1 | inactive: > 100 µM
NC(=O)c1ncn2c1NCC1OC2C(O)C1O (configuration not stated) | inactive: > 100 µM
COc1cc(C2C(Cl)C(=O)N2NC(=O)Cc2ccccc2)cc(Br)c1O (configuration not stated) | inactive: > 100 µM
O=C(NC1CCC[C@H]1OC(=O)c1ccccc1)c1ccccc1 (some centres not stated) | inactive: > 100 µM
Cc1ccc(NC(=O)CCc2nnc3s/c(=C\c4cccc([N+](=O)[O-])c4)c(=O)n23)cc1 | inactive: > 100 µM
CCOC(=O)CCC(NC(=O)c1ccc(Nc2nc3cc(C(F)(F)F)ccc3nc2-c2ccccc2)cc1)C(=O)OCC (configuration not stated) | inactive: 23.6 µM
O=C1C=CC(=O)C(N(CCO)CCO)=C1.O=C1C=CC2(O)OCCN(CCO)C2=C1 | inactive: > 100 µM
CCOC(O)(NC(=O)C(C(F)(F)F)C(F)(F)F)C(F)(F)F (configuration not stated) | inactive: > 100 µM
CC12CCC(=O)N1[C@@H](c1ccccc1)[C@@H](c1ccccc1)O2 (some centres not stated) | inactive: > 100 µM
CCCC1(N)CC(OC)OC(C)C1O (configuration not stated) | inactive: > 100 µM
CCCCCCNCCCNc1c2ccccc2nc2cccc([N+](=O)[O-])c12 | active: 0.0109 µM
CCC1(CC)C(=O)NN(C(=O)c2ccccc2)C1=O | inactive: > 100 µM
NNC(N)Nc1ccccc1 (configuration not stated) | inactive: > 100 µM

Compound | GI50
COc1ccc(C2=Nc3ccccc3SC(C)C2)cc1OC (configuration not stated) | inactive: 29.9 µM
COC(=O)c1cncc2c1CC1C3(C(=O)OC)C=NC(C4C(CO)=CCC43)C21C (configuration not stated) | inactive: > 100 µM
CC(NNC(=O)c1cc[n+]([BH2-]C#N)cc1)c1cccc(F)c1 (configuration not stated) | inactive: > 100 µM
COc1ccccc1NS(=O)(=O)c1cc(C(C)(C)C)ccc1OCCOc1ccc(C(C)(C)C)cc1S(=O)(=O)Nc1ccccc1OC | inactive: > 100 µM
CC(C)CNc1nc2ncnc(N)c2[nH]1 | inactive: > 100 µM
C[C@H](CCC(=O)O)[C@H]1CC[C@H]2[C@@H]3[C@H](O)C[C@@H]4C[C@H](O)CC[C@]4(C)[C@H]3CC[C@]12C [CHENODIOL] | inactive: 51.9 µM
c1ccc2cc(CN3CCC(C4CCN(Cc5ccc6ccccc6c5)CC4)CC3)ccc2c1 | inactive: 5.27 µM
Nc1ccc(-c2nc3ccccc3s2)cc1F | inactive: 30.1 µM
O=c1cc(/N=N/c2ccc(O)cc2)[nH]c(=O)[nH]1 | inactive: 85.3 µM
NC(=O)c1nnn(-c2ccccc2)c1O | inactive: > 100 µM
CC(C)(C)C1=C(Br)C(Br)(C(C)(C)C)OP1(=O)c1ccccc1 (configuration not stated) | inactive: > 100 µM
O=C1c2cc(-c3ccccc3)cnc2S(=O)(=O)N1c1ccc(Br)cc1 | inactive: 57.4 µM
O=C1c2ccccc2CC1C1(O)C(=O)Nc2c(Cl)cc(Cl)cc21 (configuration not stated) | inactive: > 100 µM
Nc1nnc2nc(CC(=O)/C=C/c3ccccc3)c(=O)[nH]n12 | inactive: > 100 µM
O=S1(=O)OCCOS(=O)(=O)C1(Br)Br | inactive: > 100 µM
C=C1C(=O)O[C@H]2[C@H]1CC(=O)/C(C)=C/CC[C@@]1(C)O[C@@H]21 | inactive: 12.4 µM
O=C1CC(c2c[nH]c3ccccc23)C(=O)N1c1ccccc1 (configuration not stated) | inactive: > 100 µM
CC(C)(C)c1c(C(C)(C)C)c(=O)c1=O | inactive: > 100 µM
CC1=NCCc2cc3[nH]c4ccccc4c3cc21 | inactive: 23.2 µM
O=C(O)C1CC(O)CN1 (configuration not stated) | inactive: > 100 µM
CCOC(=O)/C(=C/c1ccccc1)N(CC)CC | inactive: > 100 µM
C/C(=N\Nc1nc2ccccc2s1)c1cnccn1 | inactive: 3.7 µM
CC(=O)OC1COC(n2nc(N)nc2C)C(OC(C)=O)C1OC(C)=O (configuration not stated) | inactive: > 100 µM
N#COc1ccc(Oc2ccc(OC#N)cc2)cc1 | inactive: > 100 µM
O=C1Cc2c([nH]c3c(Cl)cccc23)-c2ccccc2N1 | inactive: > 100 µM

Compound | GI50
COc1ccc(N2C(=O)CC(c3c[nH]c4ncccc34)C2=O)cc1 (configuration not stated) | inactive: > 100 µM
CCN(CC)C(=S)SS(C)(=O)=O | inactive: 44.6 µM
CN(C(=O)C12C3C4(C(=O)O)C1(C(=O)N(C)C(C)(C)C)C1C2(C(=O)O)C3(C(=O)N(C)C(C)(C)C)C14C(=O)N(C)C(C)(C)C)C(C)(C)C (configuration not stated) | inactive: > 100 µM
CC1=NNC(=O)C1C1CC(c2c[nH]c3ccccc23)=NNC1=O (configuration not stated) | inactive: > 100 µM
C=C(C)C1CC[C@@](C)(O)[C@H](C#N)C1 (some centres not stated) | inactive: > 100 µM
Nc1nc(Cl)c(C=O)c(NCC2(CO)CCC2)n1 | inactive: 24 µM
CCOC(=O)/C(C(=O)NC(C)C)=C(/N)N1CCOCC1 | inactive: > 100 µM
COc1ccccc1/C=C1\CCC(CNc2ccc(Cl)cc2)C1=O (configuration not stated) | inactive: 13.4 µM
COC(=O)CCC(NC(=S)N/N=C(\C)c1cccs1)C(=O)OC (configuration not stated) | inactive: > 100 µM
COc1ccc(/C=N/n2c(-c3ccccc3)n[nH]c2=O)c(OC)c1 | inactive: 66.5 µM
O=C(CC(=O)Nc1ccccc1Cl)NNC(c1cc(/N=N/c2ccc(Br)cc2)ccc1O)P(O)O (configuration not stated) | inactive: 1.37 µM
CN(C)c1ccccc1CN1CCCN(Cc2ccccc2N(C)C)C1c1ccncc1 | inactive: 11.6 µM
O=C1Cc2c([nH]c3ccc(C(=O)O)cc23)-c2ccccc2N1 | inactive: 5.37 µM
O=C(CC(=O)N1N=C(c2ccccc2)C(/N=N/c2ccc(C(=O)O)cc2)C1=O)Nc1ccc(F)cc1 (configuration not stated) | inactive: 21.6 µM
C1=CC=C2NCCOCC/N=C3/C=CC=CC=C3NCCOCC/N=C\2C=C1 | inactive: 74.3 µM
COC(=O)/C=C1\C(=O)N(C(C)=O)c2ccccc21 | inactive: 16.8 µM
COc1cc2c(cc1OC)C(C(CBr)CBr)N(C1CCCC1)CC2 (configuration not stated) | inactive: > 100 µM
Nc1nc(=O)n(C2OC(CO)C(O)C2O)c2ncc(-c3ccc(-c4ccccc4)cc3)nc12 (configuration not stated) | inactive: 29.5 µM
CC(C)=CC1CCc2ccccc2N1S(=O)(=O)c1ccc(C)cc1 (configuration not stated) | inactive: 1.24 µM
O=C1NC(=O)C2=C1CCC2O (configuration not stated) | inactive: > 100 µM
C/C=C/C#CC#C/C=C/C=C/C(O)CCO (configuration not stated) | inactive: > 23.1 µM
CCOc1ccc2nc3cc(/N=N/c4ccc(N)nc4N)ccc3c(N)c2c1 | inactive: 2.26 µM

Reference: ChEMBL document CHEMBL1201862, “PubChem BioAssay data set” (2004)
